Experimental findings from publication PMC6611695, “Cryo-EM structures of remodeler-nucleosome intermediates suggest allosteric control through the nucleosome” (eLife, 2019) are described below.

The target of this experiment is T1, Histone H4 (Xenopus laevis), in the nucleosome (Xenopus laevis, UniProt P62799).
T1 construct: Histone H4, Xenopus laevis, recombinant (Luger et al., 1997); Stood in the assay as a subunit of the nucleosome m2
Kind of experiment: cryo-EM structure; 0.625 µM 0/60 nucleosomes mixed with 1.25 µM SNF2h in 0.5 mM ADP-Mg, 0.5 mM BeFx, 0.5 mM MgCl2, 140 mM KCl, 3 mM Tris pH 7.5, 1.25 mM HEPES pH 7.5, 1.5% glycerol; room temperature 10 min; no cross-linking; K2 Summit camera. The note with it: both partners purified.

B1: SNF2h (human ISWI remodeler), full-length (enzyme)
chain: MSSAAEPPPPPPPESAPSKPAASIASGGSNSSNKGGPEGVAAQAVASAASAGPADAEMEEIFDDASPGKQKEIQEPDPTYEEKMQTDRANRFEYLLKQTELFAHFIQPAAQKTPTSPLKMKPGRPRIKKDEKQNLLSVGDYRHRRTEQEEDEELLTESSKATNVCTRFEDSPSYVKWGKLRDYQVRGLNWLISLYENGINGILADEMGLGKTLQTISLLGYMKHYRNIPGPHMVLVPKSTLHNWMSEFKRWVPTLRSVCLIGDKEQRAAFVRDVLLPGEWDVCVTSYEMLIKEKSVFKKFNWRYLVIDEAHRIKNEKSKLSEIVREFKTTNRLLLTGTPLQNNLHELWSLLNFLLPDVFNSADDFDSWFDTNNCLGDQKLVERLHMVLRPFLLRRIKADVEKSLPPKKEVKIYVGLSKMQREWYTRILMKDIDILNSAGKMDKMRLLNILMQLRKCCNHPYLFDGAEPGPPYTTDMHLVTNSGKMVVLDKLLPKLKEQGSRVLIFSQMTRVLDILEDYCMWRNYEYCRLDGQTPHDERQDSINAYNEPNSTKFVFMLSTRAGGLGINLATADVVILYDSDWNPQVDLQAMDRAHRIGQTKTVRVFRFITDNTVEERIVERAEMKLRLDSIVIQQGRLVDQNLNKIGKDEMLQMIRHGATHVFASKESEITDEDIDGILERGAKKTAEMNEKLSKMGESSLRNFTMDTESSVYNFEGEDYREKQKIAFTEWIEPPKRERKANYAVDAYFREALRVSEPKAPKAPRPPKQPNVQDFQFFPPRLFELLEKEILFYRKTIGYKVPRNPELPNAAQAQKEEQLKIDEAESLNDEELEEKEKLLTQGFTNWNKRDFNQFIKANEKWGRDDIENIAREVEGKTPEEVIEYSAVFWERCNELQDIEKIMAQIERGEARIQRRISIKKALDTKIGRYKAPFHQLRISYGTNKGKNYTEEEDRFLICMLHKLGFDKENVYDELRQCIRNSPQFRFDWFLKSRTAMELQRRCNTLITLIERENMELEEKEKAEKKKRGPKPSTQKRKMDGAPDGRGRKKKLKL
notes: SNF2h, human ISWI-family chromatin remodeling ATPase, full-length form; Only the ATPase domain is resolved in the 3.4 Å map; source: Escherichia coli BL21(DE3) Rosetta, purified as previously described (Leonard and Narlikar, 2015)
B1: the binding result is “binds”.
